Assay results as given in US20130231277A1 (NEW YORK UNIVERSITY, published 2013).

How the values were obtained:
[1] = biological target: T1, 1:1 binary complex of FGFR4 ligand-binding domain and βKlotho ectodomain (human; murine, UniProt P22455 144-355; Q99N32 53-995); experiment: size-exclusion chromatography (FIGS. 2A, 2B)
T1 construct: also called FGFR4-βKlotho complex; not shown: C-terminal FLAG tag
T1 sequence 1: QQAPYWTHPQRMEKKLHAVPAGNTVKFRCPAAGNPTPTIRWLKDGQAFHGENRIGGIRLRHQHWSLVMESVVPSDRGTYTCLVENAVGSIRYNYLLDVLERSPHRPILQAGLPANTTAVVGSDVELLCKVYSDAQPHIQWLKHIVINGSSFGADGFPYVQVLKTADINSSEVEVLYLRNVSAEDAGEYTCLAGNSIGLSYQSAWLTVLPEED
T1 sequence 2: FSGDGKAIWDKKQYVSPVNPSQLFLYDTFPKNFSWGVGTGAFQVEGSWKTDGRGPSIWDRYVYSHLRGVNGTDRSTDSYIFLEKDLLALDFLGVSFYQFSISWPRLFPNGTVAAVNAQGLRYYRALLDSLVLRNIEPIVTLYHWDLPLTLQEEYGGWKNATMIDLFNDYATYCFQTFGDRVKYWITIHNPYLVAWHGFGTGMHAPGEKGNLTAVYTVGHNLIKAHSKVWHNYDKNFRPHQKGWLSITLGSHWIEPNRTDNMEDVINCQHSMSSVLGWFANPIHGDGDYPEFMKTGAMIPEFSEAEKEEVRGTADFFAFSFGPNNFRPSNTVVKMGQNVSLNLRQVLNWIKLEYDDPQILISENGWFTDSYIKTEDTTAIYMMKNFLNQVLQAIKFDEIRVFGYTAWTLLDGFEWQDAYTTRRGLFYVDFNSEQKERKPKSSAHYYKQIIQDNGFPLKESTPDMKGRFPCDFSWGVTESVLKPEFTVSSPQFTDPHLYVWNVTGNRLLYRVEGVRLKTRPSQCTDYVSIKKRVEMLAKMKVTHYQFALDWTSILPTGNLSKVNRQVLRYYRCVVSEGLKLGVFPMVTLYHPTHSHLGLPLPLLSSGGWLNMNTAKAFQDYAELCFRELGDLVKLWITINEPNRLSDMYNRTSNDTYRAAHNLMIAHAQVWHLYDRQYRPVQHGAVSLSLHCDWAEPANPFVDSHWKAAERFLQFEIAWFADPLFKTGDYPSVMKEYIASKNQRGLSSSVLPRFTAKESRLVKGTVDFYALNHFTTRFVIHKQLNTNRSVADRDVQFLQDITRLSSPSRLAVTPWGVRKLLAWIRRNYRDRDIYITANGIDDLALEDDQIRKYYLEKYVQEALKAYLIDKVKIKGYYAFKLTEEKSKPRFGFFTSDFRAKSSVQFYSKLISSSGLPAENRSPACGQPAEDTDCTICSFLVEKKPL
Procedure: Size-exclusion chromatography experiments were performed on a HiLoad™ 16/60 Superdex™ 200 prep grade column (GE Healthcare) mounted on an ÄKTApurifier (GE Healthcare). […] Sample injection volume was 0.9 to 2.0 ml, and the flow rate was 1.0 ml min⁻¹. Protein retention times were determined by absorbance at 280 nm. The column was calibrated with ferritin (440 kDa), immunoglobulin G (150 kDa), albumin (69.3 kDa), ovalbumin (44.3 kDa), carbonic anhydrase (28.8 kDa), and ribonuclease A (13.7 kDa). The void volume was determined using blue dextran 2,000, and the column volume was measured with acetone. To examine ternary complex formation between FGF21, FGFR1c, and βKlotho, 2.72 μmol of the 1:1 binary complex of FGFR1c ligand-binding domain and βKlotho ectodomain were mixed with 9.25 μmol of FGF21, and the mixture was applied to the size-exclusion column. The retention time of the FGFR1c-βKlotho complex alone served as a reference point. To examine ternary complex formation between FGF19, FGFR4, and βKlotho, 2.46 μmol of the 1:1 binary complex of FGFR4 ligand-binding domain and βKlotho ectodomain were mixed with 8.51 μmol of FGF19, and the mixture was applied to the size-exclusion column. The retention time of the FGFR4-βKlotho complex alone served as a reference point. […]

[2] = biological target: T2, ectodomain of murine βKlotho (F53 to L995 of SEQ ID NO: 218) with a C-terminal FLAG tag (murine, UniProt Q99N32 53-995); experiment: SPR; FGF19 immobilized, βKlotho ectodomain as analyte (FIG. 4A)
T2 construct: Expressed in HEK293 cells and purified from culture media; also called βKlotho ectodomain; not shown: C-terminal FLAG tag
T2 sequence: T1 sequence 2
Excerpt: FGF19 was immobilized on a biosensor chip, and increasing concentrations of βKlotho ectodomain were passed over the chip. […] FGF21 was immobilized on a biosensor chip, and increasing concentrations of βKlotho ectodomain were passed over the chip. Note that for any given concentration of βKlotho, the binding response is greater on the FGF19 chip surface than on the FGF21 chip surface. Also note that the FGF19-βKlotho complex dissociates more slowly than the FGF21-βKlotho complex (compare the dissociation phases of the sensorgrams shown in (A) and (B)). […] FGF23 was immobilized on a biosensor chip, and increasing concentrations of βKlotho ectodomain were passed over the chip. […] FGF19 was immobilized on a biosensor chip, and increasing concentrations of αKlotho ectodomain were passed over the chip. […] FGF21 was immobilized on a biosensor chip, and increasing concentrations of αKlotho ectodomain were passed over the chip. […]
SPR experiments were performed on a Biacore 2000 instrument (Biacore AB), and all the protein-protein and protein-peptide interactions were studied at 25° C. in HBS-EP buffer (10 mM HEPES-NaOH, pH 7.4, 150 mM NaCl, 3 mM EDTA, 0.005% (v/v) polysorbate 20). […] In experiments where βKlotho binding to FGFR was analyzed, the chip surface was then regenerated by injecting 50 μl of 2.0 M NaCl in 10 mM sodium/potassium phosphate, pH 6.5.

[3] = biological target: T3, ectodomain of murine αKlotho (A35 to K982 of SEQ ID NO: 231) with a C-terminal FLAG tag (murine, UniProt O35082 35-982); experiment: SPR; FGF19 immobilized, increasing concentrations of αKlotho ectodomain passed over the chip (FIG. 4D)
T3 construct: Purified from culture media of a HEK293 cell line; also called αKlotho ectodomain; not shown: C-terminal FLAG tag
T3 sequence: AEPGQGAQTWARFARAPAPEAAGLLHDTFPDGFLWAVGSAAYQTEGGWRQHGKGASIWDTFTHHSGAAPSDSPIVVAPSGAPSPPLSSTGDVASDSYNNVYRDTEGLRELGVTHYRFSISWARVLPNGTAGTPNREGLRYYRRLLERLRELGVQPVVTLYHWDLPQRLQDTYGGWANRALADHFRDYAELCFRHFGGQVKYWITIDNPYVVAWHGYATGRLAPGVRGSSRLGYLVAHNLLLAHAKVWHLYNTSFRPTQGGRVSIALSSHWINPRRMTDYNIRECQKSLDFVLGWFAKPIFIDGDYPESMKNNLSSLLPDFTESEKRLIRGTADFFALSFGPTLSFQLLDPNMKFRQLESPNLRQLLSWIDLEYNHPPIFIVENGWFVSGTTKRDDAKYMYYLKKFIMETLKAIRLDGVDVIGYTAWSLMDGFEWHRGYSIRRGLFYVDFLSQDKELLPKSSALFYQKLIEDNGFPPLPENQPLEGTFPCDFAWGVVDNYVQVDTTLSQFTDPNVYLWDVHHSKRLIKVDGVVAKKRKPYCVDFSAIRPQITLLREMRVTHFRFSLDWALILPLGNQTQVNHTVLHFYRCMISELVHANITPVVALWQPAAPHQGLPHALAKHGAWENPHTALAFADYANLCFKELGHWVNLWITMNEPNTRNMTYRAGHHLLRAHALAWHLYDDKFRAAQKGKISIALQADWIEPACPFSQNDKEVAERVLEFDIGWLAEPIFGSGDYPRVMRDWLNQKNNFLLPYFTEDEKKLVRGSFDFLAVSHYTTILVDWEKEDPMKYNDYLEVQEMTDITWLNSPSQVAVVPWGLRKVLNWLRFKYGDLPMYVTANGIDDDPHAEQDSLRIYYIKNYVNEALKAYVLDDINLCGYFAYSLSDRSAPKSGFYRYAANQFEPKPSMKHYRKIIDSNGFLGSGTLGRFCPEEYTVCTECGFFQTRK
Procedure: (§1) SPR experiments were performed on a Biacore 2000 instrument (Biacore AB), and all the protein-protein and protein-peptide interactions were studied at 25° C. in HBS-EP buffer (10 mM HEPES-NaOH, pH 7.4, 150 mM NaCl, 3 mM EDTA, 0.005% (v/v) polysorbate 20). Proteins were immobilized by amine coupling on flow channels of research grade CM5 chips (Biacore AB). Proteins were injected over a CM5 chip at a flow rate of 50 μl min⁻¹, and at the end of each protein injection (180 s), HBS-EP buffer (50 μl min⁻¹) was flowed over the chip to monitor dissociation for 180 s. In experiments where βKlotho binding to FGFR was analyzed, the chip surface was then regenerated by injecting 50 μl of 2.0 M NaCl in 10 mM sodium/potassium phosphate, pH 6.5. In experiments where α/βKlotho binding to FGF19/21/23 or binding of the FGFR1c-βKlotho complex to FGF21 was studied, 2.0 M NaCl in 10 mM sodium acetate, pH 4.5 was used for chip regeneration. To control for nonspecific binding in experiments where the ectodomain of αKlotho or βKlotho was immobilized on the chip, β-glucuronidase was coupled to the control flow channel of the chip (˜43-68 fmol/mm²). […] For each protein injection over a chip onto which αKlotho or βKlotho had been immobilized, the nonspecific responses from the β-glucuronidase control flow channel were subtracted from the responses recorded for the α/βKlotho flow channel.

[4] = biological target: T2, ectodomain of murine βKlotho (F53 to …); experiment: SPR; βKlotho ectodomain immobilized, FGFR4 ligand-binding domain as analyte (FIG. 3D)
Procedure: as §1

- binding result [1]: binds
- binding result [2]: binds
- binding result [3]: no binding
B1: human FGF19, secreted bioactive form ([…] of SEQ ID NO: 1) (ligand)
chain: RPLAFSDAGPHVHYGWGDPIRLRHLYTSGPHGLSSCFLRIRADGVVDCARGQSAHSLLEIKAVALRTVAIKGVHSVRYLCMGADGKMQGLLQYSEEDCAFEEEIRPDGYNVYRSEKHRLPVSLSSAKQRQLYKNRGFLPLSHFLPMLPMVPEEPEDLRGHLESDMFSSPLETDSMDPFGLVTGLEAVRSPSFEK

- binding result [4]: binds
B2: ligand-binding domain of human FGFR4 ([…] of SEQ ID NO: 230) (receptor)
chain: not shown

One block for each binder: values may come before it.
